Source: a compilation of properties of binary mixtures (doi:10.1016/j.molliq.2012.11.030)
The densities may have been worked out from excess volumes.

Experiment: xn = mol fraction of the nth substance listed
Conditions: 298.15 K, 101 kPa

CC(=O)[O-].CC[NH3+] + O
Conditions | mass density [kg/m3]
x1 = 0.003 | 998.8
x1 = 0.0103 | 1002.9
x2 = 0 | 1017.7
x2 = 0.2027 | 1024.4
x2 = 0.3481 | 1028.1
x2 = 0.7999 | 1040.7
x2 = 0.8502 | 1038.2
x2 = 0.9436 | 1021.1
x2 = 0.9502 | 1019.1
x2 = 0.96 | 1015.7
x2 = 0.9685 | 1012.5
x2 = 0.9799 | 1007.6
